From patent US9307761B2, “Microbial composition” (Rohm and Haas Company, priority 2011, dated 2016)
“And” between values parts separate entries of the source, which are not always exact repeats. Equal entries are not always repeated. At least one read-out could not be matched to a standard name with certainty.

Test system: Escherichia coli (E. coli—ATCC #10536)
Assay: Synergy tests: high resolution MBC microtiter plate assay, 15 seconds contact, phosphate buffer containing […] dipropylene glycol
Type: cell-based
Conditions: E. coli 10536, complete kill in 15 seconds
Excerpt: The concentrations and ratios may also vary under different test conditions or with different test methods.
One measure of synergy is the industrially accepted method described by Kull, F. C.; Eisman, P. C.; Sylwestrowicz, H. D. and Mayer, R. L., in Applied Microbiology 9:538-541 (1961), using the ratio determined by the formula: Qa/QA+Qb/QB=Synergy Index (“SI”) wherein: • QA=concentration of compound A (first component) in percent, acting alone, which produced an end point (MBC of Compound A). • Qa=concentration of compound A in percent, in the mixture, which produced an end point. • QB=concentration of compound B (second component) in percent, acting alone, which produced an end point (MBC of Compound B). • Qb=concentration of compound B in percent, in the mixture, which produced an end point.
When the sum of Qa/QA and Qb/QB is greater than one, antagonism is indicated. […] The lower the SI, the greater is the synergy shown by that particular mixture. The minimum biocidal concentration (MBC) of a microbicide is the lowest concentration tested under a specific set of conditions that provides complete kill of the tested microorganisms.
Synergy tests were conducted using standard microtiter plate assays with phosphate buffer containing 3.5% dipropylene glycol (DPG). In this method, a wide range of combinations of chemicals was tested by conducting high resolution MBC assays of Component (A) in the presence of various concentrations of Component (B). High resolution MBCs were determined by adding varying amounts of microbicide to one column of a microtiter plate and doing subsequent […] dilutions using an automated liquid handling system to obtain a series of closely spaced endpoints. The MBC plate was inoculated one column at a time with the test microorganism. An aliquot of the inoculated well was transferred at 15 seconds to a plate containing a neutralizing agent (D/E Neutralizing Broth), mixed and held for 5 minutes before being transferred to a growth plate containing trypticase soy broth (TSB). The TSB plate was incubated at 37° C. and read for the presence/absence of growth at 24 hours. The lowest level tested that provided complete kill (as evidenced by no growth in the microtitre plate) of the test organisms in 15 seconds is the minimum biocidal concentration (MBC).
The synergy of the combinations of the present invention was determined against a bacterium, Escherichia coli (E. coli—ATCC #10536), at a concentration of approximately 1×10^8 bacteria, per mL. This microorganism is representative of natural contaminants in many consumer and industrial applications.

SMILES | MBC of the component acting alone (QA or QB)
CC1=CC(C)C(CO)C(C)C1 (centres unmarked) [2,4,6-trimethyl-3-cyclohexene-1-methanol] | 0.6 weight % and 0.3 weight %
CC1=CCC(C(C)CO)CC1 (centres unmarked) [2-(4-methylcyclohex-3-enyl)propan-1-ol] | 0.25 weight % and 0.3 weight %
CCCc1ccccc1O [2-n-propylphenol] | 0.5 weight %
Cc1cc(O)cc(C(C)C)c1 [3-isopropyl-5-methylphenol] | 0.6 weight %
CCCc1cccc(O)c1 [3-n-propylphenol] | 0.6 weight %
Cc1cc(O)ccc1C(C)C [4-isopropyl-3-methylphenol] | 0.3 weight % and 0.5 weight %
CCC(C)c1ccc(O)cc1 (centres unmarked) [4-sec-butylphenol] | 0.3 weight %
C=C(C)[C@@H]1CC=C(CO)CC1 [(4S)-(4-(prop-1-en-2-yl)cyclohex-1-enyl)methanol] | 0.3 weight % and 0.5 weight %
